IC50 is the fitted dose that halves viability relative to control wells, and lower means more sensitive; fits outside the tested doses are given as limits. AUC, from the same fit, is the share of area under the viability curve across the 256-fold dose range; it is 1 without any effect and falls as sensitivity rises. The top dose, if marked as inferred, comes from the curve model; the source does not state it.
What follows are cell lines tested with C=CC(=O)Nc1cccc(Nc2nc(NC3CCC(N(C)C)CC3)nc3c2ncn3C(C)C)c1 [WZ3105] (assay: Viability of human cancer cell lines after 72 h of drug (GDSC screen)). Details: top dose inferred.
Protocol: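 Human cancer cell lines in 384-well plates, medium with 10% serum, drug for 72 h over a 256-fold dose range (nine 2-fold or five 4-fold steps up to the top dose). Adherent lines were fixed and stained with the nucleic acid dye Syto60, suspension lines read with resazurin; signal relative to control wells, capped at 0 and 100%. One two-parameter sigmoid per drug and line, fitted in a mixed model over all curves with the slope shared within a line.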
Cell Line “RCC-JF (kidney, adherent, top dose 1.28 µM)” has an AUC of 0.932 and an IC50 greater than 1280 nM.
With “RCC-JW (kidney, adherent, top dose 1.28 µM)” the AUC was 0.707 and the IC50 was 312 nM.
“RCC-MF (kidney, adherent, top dose 1.28 µM)” was tested, and the AUC was 0.915 and the IC50 was greater than 1280 nM.
Cell Line “RCM-1 (large intestine, adherent, top dose 1.28 µM)” has an AUC of 0.976 and an IC50 greater than 1280 nM.
“RD (rhabdomyosarcoma, adherent, top dose 1.28 µM)” showed an AUC of 0.727 and an IC50 of 379 nM.
“REH (B-cell leukaemia, suspension, top dose 1.28 µM)” gave an AUC of 0.46 and an IC50 of 62.7 nM.
For “RERF-GC-1B (stomach, adherent, top dose 1.28 µM)”, the AUC was 0.835 and the IC50 was 985 nM.
“RERF-LC-KJ (lung adenocarcinoma, adherent, top dose 1.28 µM)” was tested, and the AUC was 0.725 and the IC50 was 357 nM.
In the case of “RERF-LC-MS (lung adenocarcinoma, adherent, top dose 1.28 µM)”, the AUC is reported as 0.98 and the IC50 is reported as greater than 1280 nM.
For “RERF-LC-Sq1 (lung squamous cell carcinoma, adherent, top dose 1.28 µM)”, the AUC was 0.86 and the IC50 was greater than 1280 nM.
Work on “RF-48 (stomach, adherent, top dose 1.28 µM)” yielded an AUC of 0.778 and an IC50 of 584 nM.
In the case of “RH-1 (rhabdomyosarcoma, adherent, top dose 1.28 µM)”, the AUC is reported as 0.802 and the IC50 is reported as 512 nM.
Work on “RH-41 (rhabdomyosarcoma, adherent, top dose 1.28 µM)” yielded an AUC of 0.893 and an IC50 of 1090 nM.
Work on RKN (ovary, adherent, top dose 1.28 µM) yielded an AUC of 0.775 and an IC50 of 537 nM.
In the case of “RKO (large intestine, adherent, top dose 10.24 µM)”, the AUC is reported as 0.319 and the IC50 is reported as 209 nM.
In the case of “RL95-2 (endometrium, adherent, top dose 1.28 µM)”, the AUC is reported as 0.896 and the IC50 is reported as greater than 1280 nM.
Cell Line “RL (B-cell lymphoma, suspension, top dose 1.28 µM)” has an AUC of 0.716 and an IC50 of 307 nM.
In the case of “RMG-I (ovary, adherent, top dose 1.28 µM)”, the AUC is reported as 0.794 and the IC50 is reported as 704 nM.
“RO82-W-1 (thyroid, adherent, top dose 1.28 µM)” gave an AUC of 0.96 and an IC50 greater than 1280 nM.
“ROS-50 (B-cell leukaemia, suspension, top dose 1.28 µM)” was tested, and the AUC was 0.961 and the IC50 was greater than 1280 nM.
“RPMI-2650 (head and neck, adherent, top dose 1.28 µM)” was tested, and the AUC was 0.829 and the IC50 was 885 nM.
With “RPMI-6666 (Hodgkin lymphoma, suspension, top dose 1.28 µM)” the AUC was 0.596 and the IC50 was 155 nM.
Cell Line “RPMI-7951 (melanoma, adherent, top dose 1.28 µM)” has an AUC of 0.912 and an IC50 greater than 1280 nM.
With “RPMI-8226 (myeloma, suspension, top dose 1.28 µM)” the AUC was 0.528 and the IC50 was 94.6 nM.
For “RPMI-8402 (T-cell lymphoblastic leukaemia, suspension, top dose 10.24 µM)”, the AUC was 0.15 and the IC50 was 69.2 nM.
In the case of “RPMI-8866 (chronic myeloid leukaemia, suspension, top dose 1.28 µM)”, the AUC is reported as 0.71 and the IC50 is reported as 297 nM.
For “RS4-11 (leukaemia, suspension, top dose 1.28 µM)”, the AUC was 0.505 and the IC50 was 82.4 nM.
In the case of “RT4 (bladder, adherent, top dose 1.28 µM)”, the AUC is reported as 0.71 and the IC50 is reported as 325 nM.
For “RT-112 (bladder, adherent, top dose 1.28 µM)”, the AUC was 0.77 and the IC50 was 524 nM.
“RVH-421 (melanoma, adherent, top dose 1.28 µM)” showed an AUC of 0.782 and an IC50 of 757 nM.
For “RXF393 (kidney, adherent, top dose 1.28 µM)”, the AUC was 0.66 and the IC50 was 265 nM.
Cell Line “Raji (Burkitt lymphoma, suspension, top dose 1.28 µM)” has an AUC of 0.707 and an IC50 of 293 nM.
“Ramos-2G6-4C10 (Burkitt lymphoma, suspension, top dose 1.28 µM)” gave an AUC of 0.55 and an IC50 of 107 nM.
“SAS (head and neck, adherent, top dose 1.28 µM)” was tested, and the AUC was 0.79 and the IC50 was 640 nM.
Cell Line “SAT (head and neck, adherent, top dose 1.28 µM)” has an AUC of 0.889 and an IC50 greater than 1280 nM.
“SBC-1 (small cell lung carcinoma, suspension, top dose 1.28 µM)” gave an AUC of 0.567 and an IC50 of 121 nM.
“SBC-3 (small cell lung carcinoma, adherent, top dose 1.28 µM)” showed an AUC of 0.608 and an IC50 of 154 nM.
In the case of “SBC-5 (small cell lung carcinoma, adherent, top dose 1.28 µM)”, the AUC is reported as 0.965 and the IC50 is reported as greater than 1280 nM.
“SCC-3 (B-cell lymphoma, suspension, top dose 1.28 µM)” gave an AUC of 0.669 and an IC50 of 205 nM.
With “SCC-4 (head and neck, adherent, top dose 1.28 µM)” the AUC was 0.906 and the IC50 was greater than 1280 nM.

From the supplement of paper PMC4967469
